# Data as given in the supplement of paper PMC8728848.
# This is one part of the list.
# B1: P-Selectin (Homo sapiens), P16109 (protein)
# chain: MANCQIAILYQRFQRVVFGISQLLCFSALISELTNQKEVAAWTYHYSTKAYSWNISRKYCQNRYTDLVAIQNKNEIDYLNKVLPYYSSYYWIGIRKNNKTWTWVGTKKALTNEAENWADNEPNNKRNNEDCVEIYIKSPSAPGKWNDEHCLKKKHALCYTASCQDMSCSKQGECLETIGNYTCSCYPGFYGPECEYVRECGELELPQHVLMNCSHPLGNFSFNSQCSFHCTDGYQVNGPSKLECLASGIWTNKPPQCLAAQCPPLKIPERGNMTCLHSAKAFQHQSSCSFSCEEGFALVGPEVVQCTASGVWTAPAPVCKAVQCQHLEAPSEGTMDCVHPLTAFAYGSSCKFECQPGYRVRGLDMLRCIDSGHWSAPLPTCEAISCEPLESPVHGSMDCSPSLRAFQYDTNCSFRCAEGFMLRGADIVRCDNLGQWTAPAPVCQALQCQDLPVPNEARVNCSHPFGAFRYQSVCSFTCNEGLLLVGASVLQCLATGNWNSVPPECQAIPCTPLLSPQNGTMTCVQPLGSSSYKSTCQFICDEGYSLSGPERLDCTRSGRWTDSPPMCEAIKCPELFAPEQGSLDCSDTRGEFNVGSTCHFSCDNGFKLEGPNNVECTTSGRWSATPPTCKGIASLPTPGLQCPALTTPGQGTMYCRHHPGTFGFNTTCYFGCNAGFTLIGDSTLSCRPSGQWTAVTPACRAVKCSELHVNKPIAMNCSNLWGNFSYGSICSFHCLEGQLLNGSAQTACQENGHWSTTVPTCQAGPLTIQEASTSITAYKSEGESAEFSFPLNLGEESLQGELRWKAEKAPSSQSWITFSLKNQKVSVQKSTSNPKFQLSETLPLTLQIPQVSLQFAGSGNLTLTLDRGILYQEVNLVVMKVTQPDSNTLTCEVMGPTSPKMRLILKQENQEARVSRQEKVIQVQAPEAGVWQCLLSEGEEVKMDSKIQVLSKGLNSGGGSGGGTGGGDLAPQMLRELQETNAALQDVRELLRQQVKEITFLKNTVMECDACGLDRNLPPLAPLGPHPETLVKVKDAEDQLGARVGYIELDLNSGKILESFRPEERFPMMSTFKVLLCGAVLSRIDAGQEQLGRRIHYSQNDLVEYSPVTEKHLTDGMTVRELCSAAITMSDNTAANLLLTTIGGPKELTAFLHNMGDHVTRLDRWEPELNEAIPNDERDTTMPVAMATTLRKLLTGELLTLASRQQLIDWMEADKVAGPLLRSALPAGWFIADKSGAGERGSRGIIAALGPDGKPSRIVVIYTTGSQATMDERNRQIAEIGASLIKHWGPDYKDHDGDYKDHDIDYKDDDDKGPHHHHHH
# Experiments:
# Experiment in all cases: glycan array binding signal (z-score within array); higher = stronger binding
# Conditions in all cases: glycan notation: IUPAC condensed, linker removed
# Gal3S(b1-4)GlcNAc6S = target: Gal3S(b1-4)GlcNAc6S
# In short: (§1)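 The binding signal is a Z-score computed within each array and averaged over linkers. Arrays of the same protein sequence at different concentrations or buffers were also averaged together. Data originate from 3228 arrays in the Consortium for Functional Glycomics database, kept only where the protein sequence was available.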
# [1] = target: Gal3S(b1-4)[Fuc(a1-3)]Glc
# In short: as §1
# Gal3S4S(b1-4)GlcNAc = target: Gal3S4S(b1-4)GlcNAc
# In short: as §1
# Gal3S6S(b1-4)GlcNAc = target: Gal3S6S(b1-4)GlcNAc
# In short: as §1
# Gal3S6S(b1-4)GlcNAc6S = target: Gal3S6S(b1-4)GlcNAc6S
# In short: as §1
# Gal4S(b1-4)GlcNAc = target: Gal4S(b1-4)GlcNAc
# In short: as §1
# Gal4S6S(b1-4)GlcNAc = target: Gal4S6S(b1-4)GlcNAc
# In short: as §1
# Gal6S(b1-4)Glc = target: Gal6S(b1-4)Glc
# In short: as §1
# Gal6S(b1-4)Glc6S = target: Gal6S(b1-4)Glc6S
# In short: as §1
# Gal6S(b1-4)GlcNAc = target: Gal6S(b1-4)GlcNAc
# In short: as §1
# Gal6S(b1-4)GlcNAc6S = target: Gal6S(b1-4)GlcNAc6S
# In short: as §1
# GalNAc(a1-3)Gal = target: GalNAc(a1-3)Gal
# In short: as §1
# GalNAc(a1-3)GalNAc = target: GalNAc(a1-3)GalNAc
# In short: as §1
# GalNAc(b1-3)Gal = target: GalNAc(b1-3)Gal
# In short: as §1
# [2] = target: GalNAc(b1-3)Gal(a1-4)Gal(b1-4)GlcNAc
# In short: as §1
# GalNAc(b1-3)GalNAc = target: GalNAc(b1-3)GalNAc
# In short: as §1
# GalNAc(b1-4)GlcNAc = target: GalNAc(b1-4)GlcNAc
# In short: as §1
# Glc(a1-4)Glc = target: Glc(a1-4)Glc
# In short: as §1
# Glc(a1-6)Glc(a1-6)Glc = target: Glc(a1-6)Glc(a1-6)Glc
# In short: as §1
# Glc(b1-4)Glc = target: Glc(b1-4)Glc
# In short: as §1
# Glc(b1-6)Glc = target: Glc(b1-6)Glc
# In short: as §1
# GlcA(b1-3)Gal = target: GlcA(b1-3)Gal
# In short: as §1
# GlcA(b1-3)GlcNAc = target: GlcA(b1-3)GlcNAc
# In short: as §1
# GlcA(b1-6)Gal = target: GlcA(b1-6)Gal
# In short: as §1
# [3] = target: GlcNAc(a1-3)Gal(b1-4)GlcNAc
# In short: as §1
# [4] = target: GlcNAc(a1-6)Gal(b1-4)GlcNAc
# In short: as §1
# [5] = target: GlcNAc(b1-2)Gal(b1-3)GalNAc
# In short: as §1
# [6] = target: GlcNAc(b1-2)Man(a1-3)[GlcNAc(b1-2)Man(a1-6)]Man(b1-4)GlcNAc(b1-4)GlcNAc
# In short: as §1
# GlcNAc(b1-3)Gal = target: GlcNAc(b1-3)Gal
# In short: as §1
# [7] = target: GlcNAc(b1-3)Gal(b1-3)GalNAc
# In short: as §1
# GlcNAc(b1-3)Gal(b1-4)Glc = target: GlcNAc(b1-3)Gal(b1-4)Glc
# In short: as §1
# [8] = target: GlcNAc(b1-3)Gal(b1-4)GlcNAc
# In short: as §1
# [9] = target: GlcNAc(b1-3)Gal(b1-4)GlcNAc(b1-3)Gal(b1-4)GlcNAc
# In short: as §1
# GlcNAc(b1-3)GalNAc = target: GlcNAc(b1-3)GalNAc
# In short: as §1
# GlcNAc(b1-3)Man = target: GlcNAc(b1-3)Man
# In short: as §1
# [10] = target: GlcNAc(b1-3)[GlcNAc(b1-4)][GlcNAc(b1-6)]GlcNAc
# In short: as §1
# [11] = target: GlcNAc(b1-3)[GlcNAc(b1-6)]Gal(b1-4)GlcNAc
# In short: as §1
# [12] = target: GlcNAc(b1-3)[GlcNAc(b1-6)]GalNAc
# In short: as §1
# [13] = target: GlcNAc(b1-4)Gal(b1-4)GlcNAc
# In short: as §1
# GlcNAc(b1-4)GlcNAc = target: GlcNAc(b1-4)GlcNAc
# In short: as §1
# [14] = target: GlcNAc(b1-4)GlcNAc(b1-4)GlcNAc
# In short: as §1
# [15] = target: GlcNAc(b1-4)GlcNAc(b1-4)GlcNAc(b1-4)GlcNAc(b1-4)GlcNAc
# In short: as §1
# [16] = target: GlcNAc(b1-4)GlcNAc(b1-4)GlcNAc(b1-4)GlcNAc(b1-4)GlcNAc(b1-4)GlcNAc
# In short: as §1
# [17] = target: GlcNAc(b1-4)[GlcNAc(b1-6)]GalNAc
# In short: as §1
# [18] = target: GlcNAc(b1-6)Gal(b1-4)GlcNAc
# In short: as §1
binder,measurement,setting,value
B1,glycan array binding signal (z-score),Gal3S(b1-4)GlcNAc6S,0.313
same,glycan array binding signal (z-score),[1],0.089
same,glycan array binding signal (z-score),Gal3S4S(b1-4)GlcNAc,0.146
same,glycan array binding signal (z-score),Gal3S6S(b1-4)GlcNAc,0.645
same,glycan array binding signal (z-score),Gal3S6S(b1-4)GlcNAc6S,4.08
same,glycan array binding signal (z-score),Gal4S(b1-4)GlcNAc,-0.137
same,glycan array binding signal (z-score),Gal4S6S(b1-4)GlcNAc,0.693
same,glycan array binding signal (z-score),Gal6S(b1-4)Glc,-0.075
same,glycan array binding signal (z-score),Gal6S(b1-4)Glc6S,1.88
same,glycan array binding signal (z-score),Gal6S(b1-4)GlcNAc,0.026
same,glycan array binding signal (z-score),Gal6S(b1-4)GlcNAc6S,1.19
same,glycan array binding signal (z-score),GalNAc(a1-3)Gal,-0.417
same,glycan array binding signal (z-score),GalNAc(a1-3)GalNAc,0.348
same,glycan array binding signal (z-score),GalNAc(b1-3)Gal,-0.362
same,glycan array binding signal (z-score),[2],-0.235
same,glycan array binding signal (z-score),GalNAc(b1-3)GalNAc,-0.321
same,glycan array binding signal (z-score),GalNAc(b1-4)GlcNAc,-0.407
same,glycan array binding signal (z-score),Glc(a1-4)Glc,-0.113
same,glycan array binding signal (z-score),Glc(a1-6)Glc(a1-6)Glc,-0.324
same,glycan array binding signal (z-score),Glc(b1-4)Glc,-0.018
same,glycan array binding signal (z-score),Glc(b1-6)Glc,0.086
same,glycan array binding signal (z-score),GlcA(b1-3)Gal,-0.125
same,glycan array binding signal (z-score),GlcA(b1-3)GlcNAc,-0.27
same,glycan array binding signal (z-score),GlcA(b1-6)Gal,-0.001
same,glycan array binding signal (z-score),[3],-0.387
same,glycan array binding signal (z-score),[4],-0.375
same,glycan array binding signal (z-score),[5],-0.413
same,glycan array binding signal (z-score),[6],-0.237
same,glycan array binding signal (z-score),GlcNAc(b1-3)Gal,-0.152
same,glycan array binding signal (z-score),[7],-0.379
same,glycan array binding signal (z-score),GlcNAc(b1-3)Gal(b1-4)Glc,1.07
same,glycan array binding signal (z-score),[8],-0.25
same,glycan array binding signal (z-score),[9],-0.251
same,glycan array binding signal (z-score),GlcNAc(b1-3)GalNAc,-0.308
same,glycan array binding signal (z-score),GlcNAc(b1-3)Man,0.162
same,glycan array binding signal (z-score),[10],-0.391
same,glycan array binding signal (z-score),[11],-0.347
same,glycan array binding signal (z-score),[12],-0.329
same,glycan array binding signal (z-score),[13],-0.365
same,glycan array binding signal (z-score),GlcNAc(b1-4)GlcNAc,-0.214
same,glycan array binding signal (z-score),[14],0.144
same,glycan array binding signal (z-score),[15],-0.068
same,glycan array binding signal (z-score),[16],-0.163
same,glycan array binding signal (z-score),[17],-0.443
same,glycan array binding signal (z-score),[18],-0.272
